In the supplement of paper PMC12578646, “Prodrug florfenicol amine is activated by intrinsic resistance to target Mycobacterium abscessus” (Nature Microbiology, 2025):
M. abscessus ATCC 19977 and its deletion, point and complemented mutants after 5 days of drug at 37 °C plus 24 h of resazurin. Growth in % of untreated wells at the dose given (lower = more inhibition); checkerboards give % inhibition (higher = more inhibition); IC50 from the fitted curve (lower = more potent). No active / inactive call. IC50 values come from the same 384-well curves. Growth is not capped and can exceed 100%. The direction of the checkerboard scale is read from the raw signals. Capreomycin is a mixture.

Assays:
Test in all cases: growth relative to untreated wells; higher = more growth (less inhibition)
[1] = system: Mycobacterium abscessus ATCC 19977 ΔwhiB7
Description: (§1)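 384-well two-fold dose series, two replicates; 5 days at 37 °C, then 24 h with resazurin; fluorescence scaled to growth and killed controls.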

[2] = system: Mycobacterium abscessus ATCC 19977 Δeis2
Description: as §1

[3] = system: Mycobacterium abscessus ATCC 19977 Eis2 Y284*
Description: as §1

[4] = system: Mycobacterium abscessus ATCC 19977 Eis2 Y227D
Description: as §1

[5] = system: Mycobacterium abscessus ATCC 19977 Eis2 T258R
Description: as §1

[6] = system: Mycobacterium abscessus ATCC 19977 WhiB7 F24fs
Description: as §1

[7] = system: Mycobacterium abscessus ATCC 19977 Eis2 E120fs
Description: as §1

[8] = system: Mycobacterium abscessus ATCC 19977 Eis2 Y255*
Description: as §1

[9] = system: Mycobacterium abscessus ATCC 19977 WhiB7 A51T
Description: as §1

[10] = system: Mycobacterium abscessus ATCC 19977 WhiB7 L37P
Description: as §1

[11] = system: Mycobacterium abscessus ATCC 19977 WhiB7 T70fs
Description: as §1

[12] = system: Mycobacterium abscessus ATCC 19977
Description: as §1

CS(=O)(=O)c1ccc([C@@H](O)[C@@H](CF)NC(=O)C(Cl)Cl)cc1 [florfenicol]
Conditions	growth [%]
[1], 0.5 µg/mL	97.5
[1], 1 µg/mL	102
[1], 2 µg/mL	106
[1], 4 µg/mL	118
[1], 8 µg/mL	122
[1], 16 µg/mL	118
[1], 32 µg/mL	68.14
[1], 64 µg/mL	26.2
[1], 128 µg/mL	8.54
[1], 256 µg/mL	-2.06
[1], 512 µg/mL	-3.67
[1], 1024 µg/mL	-4.23
[2], 0.5 µg/mL	94.9
[2], 1 µg/mL	97.9
[2], 2 µg/mL	101
[2], 4 µg/mL	102
[2], 8 µg/mL	109.7
[2], 16 µg/mL	66.6
[2], 32 µg/mL	23.3
[2], 64 µg/mL	1.97
[2], 128 µg/mL	-1.16
[2], 256 µg/mL	-2.82
[2], 512 µg/mL	-2.44
[2], 1024 µg/mL	-2.02
[3], 0.5 µg/mL	103.3
[3], 1 µg/mL	101
[3], 2 µg/mL	103
[3], 4 µg/mL	110.8
[3], 8 µg/mL	119.6
[3], 16 µg/mL	61.1
[3], 32 µg/mL	8.93
[3], 64 µg/mL	-0.153
[3], 128 µg/mL	-2.04
[3], 256 µg/mL	-2.11
[3], 512 µg/mL	-1.958
[3], 1024 µg/mL	-1.89
[4], 0.5 µg/mL	106
[4], 1 µg/mL	108
[4], 2 µg/mL	108
[4], 4 µg/mL	115
[4], 8 µg/mL	120.7
[4], 16 µg/mL	105
[4], 32 µg/mL	39.24
[4], 64 µg/mL	4.03
[4], 128 µg/mL	0.0861
[4], 256 µg/mL	-0.2
[4], 512 µg/mL	-0.268
[4], 1024 µg/mL	-0.612
[5], 0.5 µg/mL	95.2
[5], 1 µg/mL	102.1
[5], 2 µg/mL	92.1
[5], 4 µg/mL	109
[5], 8 µg/mL	113
[5], 16 µg/mL	67.1
[5], 32 µg/mL	6.57
[5], 64 µg/mL	-0.123
[5], 128 µg/mL	-2.29
[5], 256 µg/mL	-2.22
[5], 512 µg/mL	-2.28
[5], 1024 µg/mL	-2.19
[6], 0.5 µg/mL	102
[6], 1 µg/mL	102
[6], 2 µg/mL	98.1
[6], 4 µg/mL	113
[6], 8 µg/mL	111.2
[6], 16 µg/mL	105
[6], 32 µg/mL	39.4
[6], 64 µg/mL	10.7
[6], 128 µg/mL	2.01
[6], 256 µg/mL	-2.18
[6], 512 µg/mL	2.5
[6], 1024 µg/mL	-1.21
[7], 0.5 µg/mL	107
[7], 1 µg/mL	110.7
[7], 2 µg/mL	112.34
[7], 4 µg/mL	117
[7], 8 µg/mL	116
[7], 16 µg/mL	105
[7], 32 µg/mL	37
[7], 64 µg/mL	3.44
[7], 128 µg/mL	-0.458
[7], 256 µg/mL	-1.61
[7], 512 µg/mL	-1.64
[7], 1024 µg/mL	-1.87
[8], 0.5 µg/mL	101.47
[8], 1 µg/mL	104
[8], 2 µg/mL	103
[8], 4 µg/mL	111
[8], 8 µg/mL	119.7
[8], 16 µg/mL	85.8
[8], 32 µg/mL	19.6
[8], 64 µg/mL	0.226
[8], 128 µg/mL	-2.67
[8], 256 µg/mL	-3.32
[8], 512 µg/mL	-3.09
[8], 1024 µg/mL	-3.09
[9], 0.5 µg/mL	99.3
[9], 1 µg/mL	110
[9], 2 µg/mL	107
[9], 4 µg/mL	117.8
[9], 8 µg/mL	120
[9], 16 µg/mL	117
[9], 32 µg/mL	73.5
[9], 64 µg/mL	13.7
[9], 128 µg/mL	4.19
[9], 256 µg/mL	-2.12
[9], 512 µg/mL	-2.32
[9], 1024 µg/mL	-1.85
[10], 0.5 µg/mL	102
[10], 1 µg/mL	99.1
[10], 2 µg/mL	109
[10], 4 µg/mL	115.3
[10], 8 µg/mL	117
[10], 16 µg/mL	117
[10], 32 µg/mL	66.5
[10], 64 µg/mL	15.6
[10], 128 µg/mL	4.7
[10], 256 µg/mL	-1.16
[10], 512 µg/mL	-1.89
[10], 1024 µg/mL	-1.67
[11], 0.5 µg/mL	94.14
[11], 1 µg/mL	100
[11], 2 µg/mL	99.5
[11], 4 µg/mL	108.2
[11], 8 µg/mL	113
[11], 16 µg/mL	109
[11], 32 µg/mL	52.4
[11], 64 µg/mL	8.7
[11], 128 µg/mL	0.344
[11], 256 µg/mL	-3.68
[11], 512 µg/mL	-3.82
[11], 1024 µg/mL	-2.71
[12], 0.5 µg/mL	96.7
[12], 1 µg/mL	105
[12], 2 µg/mL	111
[12], 4 µg/mL	110
[12], 8 µg/mL	115
[12], 16 µg/mL	70
[12], 32 µg/mL	21.8
[12], 64 µg/mL	0.239
[12], 128 µg/mL	-1.22
[12], 256 µg/mL	0.115
[12], 512 µg/mL	-1.6
[12], 1024 µg/mL	-1.14

CN(C)[C@@H]1C(O)=C(C(N)=O)C(=O)[C@@]2(O)C(O)=C3C(=O)c4c(O)c(NC(=O)CN5CCCC5)cc(F)c4C[C@H]3C[C@@H]12 [eravacycline]
Conditions	growth [%]
[1], 0.003125 µg/mL	92.9
[1], 0.00625 µg/mL	94.5
[1], 0.0125 µg/mL	95.7
[1], 0.025 µg/mL	90
[1], 0.05 µg/mL	91.4
[1], 0.1 µg/mL	96.7
[1], 0.2 µg/mL	74.7
[1], 0.4 µg/mL	1.21
[1], 0.8 µg/mL	-6.19
[1], 1.6 µg/mL	-7.05
[1], 3.2 µg/mL	-7.85
[1], 6.4 µg/mL	-9.08
[2], 0.003125 µg/mL	101
[2], 0.00625 µg/mL	100
[2], 0.0125 µg/mL	94.2
[2], 0.025 µg/mL	100
[2], 0.05 µg/mL	93.9
[2], 0.1 µg/mL	99.1
[2], 0.2 µg/mL	87.1
[2], 0.4 µg/mL	24.5
[2], 0.8 µg/mL	9.73
[2], 1.6 µg/mL	-3.42
[2], 3.2 µg/mL	-6.24
[2], 6.4 µg/mL	-7.2
[3], 0.003125 µg/mL	98.5
[3], 0.00625 µg/mL	102
[3], 0.0125 µg/mL	97
[3], 0.025 µg/mL	100
[3], 0.05 µg/mL	91.1
[3], 0.1 µg/mL	98
[3], 0.2 µg/mL	116.2
[3], 0.4 µg/mL	84.7
[3], 0.8 µg/mL	-0.944
[3], 1.6 µg/mL	-4.42
[3], 3.2 µg/mL	-5.86
[3], 6.4 µg/mL	-6.95
[4], 0.003125 µg/mL	107
[4], 0.00625 µg/mL	104
[4], 0.0125 µg/mL	100
[4], 0.025 µg/mL	101
[4], 0.05 µg/mL	99.8
[4], 0.1 µg/mL	104
[4], 0.2 µg/mL	123
[4], 0.4 µg/mL	57.2
[4], 0.8 µg/mL	1.65
[4], 1.6 µg/mL	-2.51
[4], 3.2 µg/mL	-4.7
[4], 6.4 µg/mL	-5.88
[5], 0.003125 µg/mL	93.5
[5], 0.00625 µg/mL	100
[5], 0.0125 µg/mL	88.3
[5], 0.025 µg/mL	102
[5], 0.05 µg/mL	85.6
[5], 0.1 µg/mL	102
[5], 0.2 µg/mL	112
[5], 0.4 µg/mL	42.3
[5], 0.8 µg/mL	0.888
[5], 1.6 µg/mL	-3.06
[5], 3.2 µg/mL	-6.25
[5], 6.4 µg/mL	-6.82
[6], 0.003125 µg/mL	101
[6], 0.00625 µg/mL	103
[6], 0.0125 µg/mL	96
[6], 0.025 µg/mL	101
[6], 0.05 µg/mL	92.1
[6], 0.1 µg/mL	98.8
[6], 0.2 µg/mL	116.3
[6], 0.4 µg/mL	1.84
[6], 0.8 µg/mL	10.3
[6], 1.6 µg/mL	-4.87
[6], 3.2 µg/mL	-5.41
[6], 6.4 µg/mL	-6.37
[7], 0.003125 µg/mL	98.4
[7], 0.00625 µg/mL	106.5
[7], 0.0125 µg/mL	101
[7], 0.025 µg/mL	102
[7], 0.05 µg/mL	87.7
[7], 0.1 µg/mL	109
[7], 0.2 µg/mL	125
[7], 0.4 µg/mL	65.7
[7], 0.8 µg/mL	-0.517
[7], 1.6 µg/mL	-3.8
[7], 3.2 µg/mL	-6.33
[7], 6.4 µg/mL	-7.2
[8], 0.003125 µg/mL	93.5
[8], 0.00625 µg/mL	97.2
[8], 0.0125 µg/mL	99.8
[8], 0.025 µg/mL	100
[8], 0.05 µg/mL	92.9
[8], 0.1 µg/mL	96
[8], 0.2 µg/mL	120
[8], 0.4 µg/mL	63.8
[8], 0.8 µg/mL	3.48
[8], 1.6 µg/mL	-5.71
[8], 3.2 µg/mL	-6.63
[8], 6.4 µg/mL	-8.43
[9], 0.003125 µg/mL	99.19
[9], 0.00625 µg/mL	106
[9], 0.0125 µg/mL	100
[9], 0.025 µg/mL	102
[9], 0.05 µg/mL	89.5
[9], 0.1 µg/mL	99.1
[9], 0.2 µg/mL	135
[9], 0.4 µg/mL	-3.04
[9], 0.8 µg/mL	-3.81
[9], 1.6 µg/mL	-5.04
[9], 3.2 µg/mL	-6.18
[9], 6.4 µg/mL	-7.29
[10], 0.003125 µg/mL	94.9
[10], 0.00625 µg/mL	108
[10], 0.0125 µg/mL	95.2
[10], 0.025 µg/mL	102
[10], 0.05 µg/mL	91
[10], 0.1 µg/mL	102
[10], 0.2 µg/mL	124
[10], 0.4 µg/mL	3.43
[10], 0.8 µg/mL	-1.66
[10], 1.6 µg/mL	-4.67
[10], 3.2 µg/mL	-5
[10], 6.4 µg/mL	-6.38
[11], 0.003125 µg/mL	90.179
[11], 0.00625 µg/mL	100
[11], 0.0125 µg/mL	98.2
[11], 0.025 µg/mL	97.7
[11], 0.05 µg/mL	92.5
[11], 0.1 µg/mL	99.5
[11], 0.2 µg/mL	118
[11], 0.4 µg/mL	11.1
[11], 0.8 µg/mL	-5.74
[11], 1.6 µg/mL	-6.93
[11], 3.2 µg/mL	-7.71
[11], 6.4 µg/mL	-8.73
[12], 0.003125 µg/mL	99.5
[12], 0.00625 µg/mL	105
[12], 0.0125 µg/mL	101
[12], 0.025 µg/mL	106
[12], 0.05 µg/mL	97.4
[12], 0.1 µg/mL	99.4
[12], 0.2 µg/mL	84.9
[12], 0.4 µg/mL	37.3
[12], 0.8 µg/mL	0.407
[12], 1.6 µg/mL	-3.99
[12], 3.2 µg/mL	-5.84
[12], 6.4 µg/mL	-6.46
